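48-hour exposure; five concentrations; linearly interpolated endpoints. GI50 = concentration required for 50% inhibition of growth.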 Some entries of the source have several records that differ or are many. This list holds those alone. There may be further records. Values that stand side by side repeat one measurement across runs, samples, wells, individuals or studies. What stands in brackets tells the records apart. Letters count within one entry.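 TGI: total growth inhibition.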
What was measured:
Assay in all cases: growth of human tumour cells (NCI), 48 h
KM12 colon = test system: KM12 colon
CCRF-CEM leukemia = test system: CCRF-CEM leukemia
MDA-MB-231 breast = test system: MDA-MB-231 breast
SR leukemia = test system: SR leukemia

SMILES | GI50 (KM12 colon) | TGI (CCRF-CEM leukemia) | TGI (MDA-MB-231 breast) | TGI (SR leukemia)
C=CCN1C(=O)/C(=C/c2ccc(C)cc2)N=C1SC1OC(COC(C)=O)C(OC(C)=O)C(OC(C)=O)C1OC(C)=O (centres undefined) | > 100 µM [sample A, mean of 2 tests] and 3.03 µM [sample B, 1 test] | > 90.7 µM [sample A, mean of 2 tests] and 6.88 µM [sample B, 1 test] |  | 
COc1ccc(F)c(F)c1C(=O)c1cnc(NC2CCN(S(C)(=O)=O)CC2)nc1N |  |  | > 100 µM [sample A, 1 test] and 4.89 µM [sample B, mean of 2 tests] | > 100 µM [sample A, 1 test] and 788 nM [sample B, 1 test]

Source: PubChem BioAssay (NCI)
